Data: the supplement of paper PMC5499739
Over roughly 16,000 sequences, “Z-score” has its median near -0.37; the highest 2% begin near 3.1. The list shows a part of the results.

Each sequence was assayed on RBM10 RRM1-ZnF-RRM2 (GST-tagged construct) (assay: RNAcompete 7-mer binding Z-score; higher = stronger binding preference).
Procedure: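 RNAcompete: 20 pmol GST-tagged RBM10 RNA-binding constructs were incubated with a designed RNA pool of about 241,000 sequences up to 41 nt (1.5 nmol) on glutathione beads for 30 min at 4 °C and washed. Bound RNAs were identified by microarray hybridisation. Each RNA 7-mer is scored by a one-sided Z-score of its enrichment, computed over probes that contain the 7-mer within longer pool sequences.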

| Sequence | RNAcompete 7-mer binding Z-score |
| --- | --- |
| AGGACCC | -0.508 |
| GUCCUCA | -0.781 |
| CGAUGAA | -0.00148 |
| CAAAUCG | -0.409 |
| UACACGU | -0.391 |
| AUGAUCC | -0.624 |
| UUCUAAG | -0.657 |
| AGUCACC | -0.675 |
| UUCUCAG | -0.606 |
| UAACAUA | -0.439 |
| UGCGCUG | -0.103 |
| CCAGGGA | 1.51 |
| UGUCAGG | 0.45 |
| UGCUCGU | -0.606 |
| AAGGAUC | 1.54 |
| UUCCCAA | -0.683 |
| UGAAAUU | -0.686 |
| AUGACCC | -0.57 |
| UGGAGUC | 0.807 |
| GCUACCC | -0.752 |
| GCGGUUA | 1.19 |
| CAGGCCG | 0.0786 |
| GGAAUGG | 4.19 |
| UGGUGAA | 1.22 |
| UGUACGU | -0.253 |

| Sequence | RNAcompete 7-mer binding Z-score |
| --- | --- |
| AUCCGCC | -0.97 |
| GAAGCGC | 0.159 |
| GAAGGUA | 4.04 |
| GUAAGUU | 0.246 |
| GGAAAUC | 0.931 |
| UAAGAAC | -0.231 |
| ACGAAAA | -0.111 |
| UUUGUUA | -0.748 |
| GUUUAUG | 0.0386 |
| AGGGGUC | 1.76 |
| GUCAUAU | -0.209 |
| UGGACCC | -0.147 |
| ACUCUAG | -0.683 |
| CUCCUAA | -0.861 |
| AAUUGAA | -0.238 |
| UGUCCUA | -0.559 |
| UGCCUUU | -0.843 |
| GCACUUA | -0.734 |
| UGGGAAC | 2.25 |
| UCUGUUA | -0.795 |
| GAGCUAG | 0.399 |
| UAAGACU | -0.424 |
| GUGAACA | 0.767 |
| ACGGUAA | 0.829 |
| CAACCCG | -0.584 |

| Sequence | RNAcompete 7-mer binding Z-score |
| --- | --- |
| AGAACUU | -0.708 |
| ACCUUGA | -0.744 |
| ACGUGGU | 1.08 |
| GGGAGAA | 2.5 |
| AAACGCA | -0.213 |
| GUAUCUU | -0.668 |
| GGCAACC | 0.0896 |
| CCAUCGC | -0.803 |
| GCUAUGU | -0.358 |
| UGUCCAA | -0.704 |
| AACCAAG | 0.0459 |
| AUAAAGA | 0.0131 |
| AUUUCCU | -0.777 |
| UGCCGGU | -0.0998 |
| ACGCGUG | 0.0568 |
| CCUAACA | -0.766 |
| GUGUCUC | -0.544 |
| AAUGGCC | 0.447 |
| UUCCGCG | -0.621 |
| AUCCACG | -0.504 |
| AUAACUC | -0.704 |
| GGGACGU | 1.73 |
| CUUUGAA | -0.701 |
| GACUACG | -0.14 |
| AGAUAUU | -0.351 |

| Sequence | RNAcompete 7-mer binding Z-score |
| --- | --- |
| CCACGUU | -0.548 |
| GCGGUCU | -0.0161 |
| AAAUUUA | -0.402 |
| UCCGGCA | -0.661 |
| UAAUGCU | -0.672 |
| UGAACUC | -0.588 |
| GCCACAU | -0.664 |
| CGCAGGU | 0.53 |
| UGCAAGU | 0.0495 |
| UCCGACG | -0.468 |
| GCUUGUU | -0.792 |
| AAUAAUG | 0.0386 |
| UACUUGA | -0.697 |
| AUAAGUU | -0.249 |
| UAUUUCA | -0.613 |
| GAUUGGU | 1.62 |
| AAACAUG | -0.0634 |
| UGAACGU | -0.165 |
| CGUGGGC | 2.21 |
| UUUGGGG | 2.13 |
| AUAUUCA | -0.384 |
| AGCCAUU | -0.879 |
| CAUGUUU | -0.632 |
| GAGCUCA | -0.814 |
| AUCUUCC | -0.679 |
